The inconclusive results got no clear call from the source; some entries with a clear call stand among them for comparison. A potency beside an inconclusive call is a rough fit, not a confirmed value. The source made the active and inactive calls. Calls come from the whole dose curve; as a rule, active = well fitted inhibition curve with a large enough effect; inconclusive = small, poorly fitted or top-dose-only effect, or effect the other way, or another doubt; inactive = no such curve, though single readings can be large or run the other way.
experiment: Confirmation Concentration-Response Assay for lipid storage modulators; details: Drosophila S3 cells, lipid droplet BODIPY/CellTracker ratio, 18-24 h; activity change, negative = inhibition: at 46.1 µM (top of the series); note: nearly all actives have a fitted effect of over 80% in size;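 for activity change, negative = inhibition: -100% = full block of lipid deposition by 20 µM Triacsin C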
How it was run: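 Cells at 5,000/well received compound as a titration plus oleic acid (added as 400 uM solution) and were incubated 18–24 h at 24 °C. BODIPY 493/503 lipid signal and CellTracker Red cell count were read by 488-nm laser-scanning cytometry. Activity was normalised to 20 uM Triacsin C.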
Potency is the fitted concentration of half-maximal effect; tags give direction and shape of the fitted curve.

Row | Compound | Potency | activity change, negative = inhibition
1 | Cc1ccccc1-n1c(SCC(N)=O)nc2sc(-c3ccccc3)cc2c1=O | inconclusive: 6.28 µM [activator, partial curve] | –
2 | CCCCCCCCCCCCCCCCn1cc[n+](C)c1 | active: 3.15 µM | –
3 | CCCn1nc(NC(=O)c2cccs2)c2cc3cc(OC)ccc3nc21 | inconclusive: 0.888 µM [activator, full curve] | –
4 | Cc1ccc(NC(=O)CNC(=O)CC23CC4CC(CC(C4)C2)C3)c(O)c1 | active: 2.23 µM | –
5 | CCOc1ccc(CCNC(=O)C(CCC(N)=O)NC(=O)OCc2ccccc2)cc1OCC (stereo not given) | inconclusive: 14.1 µM [activator, partial curve, poor fit] | –
6 | CCCN1C(=O)c2cc(C(=O)Nc3ccccc3OC)ccc2C1Nc1ccccc1OC (stereo not given) | inconclusive: 7.91 µM [activator, partial curve, poor fit] | –
7 | CCOc1ccc2nc(-c3ccccc3)nc(SCC(=O)Nc3ncc(C)s3)c2c1 | inconclusive: 0.223 µM [activator, full curve] | –
8 | S=C(Nc1cc(Cl)ccc1Oc1ccccc1)N1CCN(c2ccccn2)CC1 | active: 2.5 µM | –
9 | O=C(Nc1ccccc1)c1ccc(S(=O)(=O)NCc2cccnc2)cc1 | inconclusive: 3.97 µM [activator, full curve] | –
10 | Cc1ccc(F)cc1NC(=O)CCOc1ccccc1 | inconclusive: 4.45 µM [activator, partial curve] | –
11 | Cc1ccc2nc(-c3ccc(NC(=O)CN4CCN(C(=O)c5ccco5)CC4)cc3)sc2c1 | inconclusive: 2.23 µM [activator, full curve] | –
12 | CCOc1ccc(Br)cc1S(=O)(=O)Nc1ccc(N2CCOCC2)cc1 | inconclusive: 7.05 µM [activator, partial curve] | –
13 | O=C(NCCCn1ccnc1)C1c2ccccc2Oc2ccccc21 | inconclusive: 8.88 µM [activator, partial curve] | –
14 | O=C(c1ccc2c(c1)OCO2)N1CCN(c2ccccn2)CC1 | inconclusive: 15.8 µM [activator, partial curve, poor fit] | –
15 | COC(=O)c1ccc(C(=O)NC2CCCc3c2cnn3-c2ccccc2F)nc1 (stereo not given) | active: 0.177 µM | –
16 | COc1ccc(NC(=O)NC2(C(=O)N3CCN4CCCC4C3)CCCCC2)cc1 (stereo not given) | – | inactive: 10.5%
17 | COc1ccc(CCNC(=O)COc2cc(O)c3c(c2)OC(C)(C)CC3=O)cc1OC | – | inactive: 2%
18 | CCOC(=O)c1c(C)[nH]c(C(=O)CSc2nc(C)cc(C)n2)c1C | inconclusive: 4.99 µM [activator, partial curve] | –
19 | COc1ccc(CCNC(=O)CSC2=NS(=O)(=O)c3ccccc3N2)cc1OC | – | inactive: 8%
20 | O=C(Cn1nc(-c2ccc(F)cc2)ccc1=O)Nc1ccc(C(=O)NC2CC2)cc1 | inconclusive: 9.96 µM [activator, partial curve] | –

Row | Compound | Potency | activity change, negative = inhibition
21 | CCOc1ccc(CCNC(=O)COC(=O)COc2ccc(Br)cc2)cc1OCC | – | inactive: 20%
22 | COc1ccc(/C=C(/NC(=O)c2cccs2)C(=O)Nc2ccc(C)cc2)cc1OC | active: 0.25 µM | –
23 | CC1CCCN(C2=C(NS(=O)(=O)c3ccc(Br)cc3)C(=O)c3ccccc3C2=O)C1 (stereo not given) | active: 2.5 µM | –
24 | CCOC(=O)C1=C(c2ccccc2)Nc2ncnn2C1c1cccc(OC)c1OC (stereo not given) | inconclusive: 6.28 µM [activator, full curve, poor fit] | –
25 | Cc1ccc(NC(=O)C(C)OC(=O)Cc2c[nH]c3ccccc23)cc1 (stereo not given) | inconclusive: 3.53 µM [activator, partial curve, poor fit] | –
26 | COc1ccc(NC(=O)CSc2cccc3cccnc23)c(OC)c1 | inconclusive: 1.77 µM [activator, full curve] | –
27 | OC(CC1CC12c1ccccc1-c1ncccc12)(c1ccccc1)c1ccccc1 (stereo not given) | inconclusive: 8.88 µM [activator, partial curve, poor fit] | –
28 | CCN(CC)S(=O)(=O)c1ccc2c(c1)nc(CCC(=O)Nc1ccc3c(c1)OCO3)n2C | inconclusive: 3.97 µM [activator, partial curve] | –
29 | COc1ccc(N=NC2C(=O)N(c3ccccc3)N=C2C)cc1 (stereo not given) | active: 14.1 µM | –
30 | O=C(Nc1cccc(S(=O)(=O)N2CCCCC2)c1)c1ccccc1NS(=O)(=O)c1ccc(F)cc1 | active: 28.1 µM | –
31 | Cn1nc(CC(=O)Nc2ccc(N3CCN(C(=O)OC(C)(C)C)CC3)cc2)c2ccccc2c1=O | active: 1.77 µM | –
32 | COc1cc(OC)c(-c2nnc(-c3ccc(OC)c(OC)c3OC)o2)cc1OC | inconclusive: 0.0888 µM [activator, full curve, poor fit] | –
33 | Cc1cccc(-n2ncc3c2CCCC3NC(=O)Cc2c(C)noc2C)c1C (stereo not given) | active: 14.1 µM | –
34 | Nc1ccc(C(=O)Nc2nc3ccccc3s2)cc1 | inconclusive: 3.97 µM [activator, full curve] | –
35 | COc1ccc(-c2cc(C(=O)OCC(=O)N(C)C)c3ccccc3n2)cc1 | inconclusive: 7.05 µM [activator, full curve] | –
36 | COc1cc(-c2nn3c(-c4ccccc4)nnc3s2)cc(OC)c1OC | inconclusive: 0.112 µM [activator, full curve] | –
37 | CC1CCCCC1NC(=O)CCC(=O)N1CCOc2ccc(Cl)cc21 (stereo not given) | inconclusive: 12.5 µM [activator, partial curve, poor fit] | –
38 | Nc1nc(Nc2cccc(F)c2)nc2ccccc12 | inconclusive: 4.45 µM [activator, full curve] | –
39 | COc1ccc(CCNC(=O)c2cc3c(=O)n(C)c4ccccc4c3n2C)cc1OC | inconclusive: 0.499 µM [activator, full curve, poor fit] | –
40 | O=C(CCc1ccccc1)Nc1cccc(-c2nnc(-c3ccco3)o2)c1 | inconclusive: 1.58 µM [activator, full curve] | –
